According to the supplement of paper PMC10126150:
Values marked as one replicate rest on one cluster of the flow cell; about a third of the high ones do not repeat.

Each sequence was assayed on ATP (assay: switch fluorescence ratio, 500 uM ATP over buffer (Cy3 cluster intensity, sum of 5 cycles each) (fold (ratio)); higher = stronger signal-on switching upon ATP binding; sequences stand for … in TCGTCGGCAGCGTCAGATGTGTATAAGAGACAGTTTTTTTTTTTTTTTTTTTTTTTTT…TC). Conditions: aptamer strand: ATP DNA aptamer (quencher-CACCTGGGGGAGTATTGCGGAGGAAGG + anchor), 100 nM annealed; ATP concentration: 500 uM; one replicate.
How it was run: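 The fluorescence ratio divides summed target-cycle Cy3 intensity by summed buffer-cycle Cy3 intensity for each cluster and is averaged per switch-domain sequence. Cy3-labelled switching-strand clusters on a modified Illumina MiSeq flow-cell were annealed to 100 nM quencher-labelled ATP aptamer, then imaged in selection buffer and again after 15 min with 500 uM ATP at 22 °C. Five such cycles were run, with NaOH stripping and re-annealing between them, and clusters outside 100-1000 RFU were excluded.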
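Note: ATP exposure 15 min at 22 °C before imaging.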

Row | Sequence | switch fluorescence ratio
1 | CGTGGTTTTA | 1.02
2 | CGTGTCAAAC | 1.09
3 | CGTGTCCCGG | 0.971
4 | CGTGTCGAGT | 0.948
5 | CGTGTCTTCG | 1.02
6 | CGTGTGGCAA | 1.15
7 | CGTGTGGCGC | 0.936
8 | CGTGTTACAA | 1.01
9 | CGTGTTAGAA | 1.19
10 | CGTGTTTACA | 0.978
11 | CGTTAAGCGT | 1.04
12 | CGTTAAGGG | 1.01
13 | CGTTAATATA | 0.964
14 | CGTTACTCTA | 1.18
15 | CGTTAGAGCA | 1.01
16 | CGTTATCAAT | 1.01
17 | CGTTATCTAT | 1.01
18 | CGTTATGCGT | 0.981
19 | CGTTATTAA | 1.04
20 | CGTTATTAGT | 0.997
21 | CGTTATTTAG | 1.02
22 | CGTTCAAATG | 1.03
23 | CGTTCCCGTT | 1
24 | CGTTCCGTTT | 0.995
25 | CGTTCGGCGG | 1.06
26 | CGTTCGGTAC | 3.26

Row | Sequence | switch fluorescence ratio
27 | CGTTCGTAAG | 1.1
28 | CGTTCGTAAT | 3.8
29 | CGTTCTATTA | 0.988
30 | CGTTCTCATG | 1.03
31 | CGTTCTGACC | 1.09
32 | CGTTCTTAAA | 0.968
33 | CGTTCTTCAA | 1.02
34 | CGTTCTTTGC | 1.02
35 | CGTTGAAGAA | 1.03
36 | CGTTGACTCT | 0.999
37 | CGTTGCGAT | 1.04
38 | CGTTGCGATT | 1.03
39 | CGTTGGCTGA | 1
40 | CGTTTACAAC | 0.985
41 | CGTTTAGTTA | 0.974
42 | CGTTTATAT | 1.02
43 | CGTTTCCCG | 0.966
44 | CGTTTCGACG | 1.01
45 | CGTTTGAAAG | 0.962
46 | CGTTTGAAAT | 0.956
47 | CGTTTGATTC | 0.949
48 | CGTTTGCCAT | 1.03
49 | CGTTTTAATT | 1.02
50 | CGTTTTCCG | 0.917
51 | CGTTTTCGTG | 0.996
52 | CGTTTTGATG | 0.993

Row | Sequence | switch fluorescence ratio
53 | CTAAACTCGC | 1.05
54 | CTAAACTT | 1.05
55 | CTAAAGATTC | 0.984
56 | CTAAAGGAGG | 0.975
57 | CTAAATGATG | 0.993
58 | CTAAATTAGG | 0.983
59 | CTAACAGCGG | 1.02
60 | CTAACATGCT | 0.926
61 | CTAACCACTC | 1.07
62 | CTAACCCATT | 1.03
63 | CTAACCGGT | 1.01
64 | CTAACCTTGG | 1.06
65 | CTAACGAGGT | 1.01
66 | CTAACGCTGT | 1.23
67 | CTAACTACAT | 1.03
68 | CTAACTTACG | 1.34
69 | CTAAGAAGAG | 0.985
70 | CTAAGAGAAA | 0.975
71 | CTAAGAGGGT | 0.987
72 | CTAAGATGTG | 1.01
73 | CTAAGCTGTG | 0.989
74 | CTAAGGAT | 0.965
75 | CTAAGGTACC | 1.05
76 | CTAAGTTGGA | 0.984
77 | CTAATACCG | 1.13
78 | CTAATATCGG | 1.04

Row | Sequence | switch fluorescence ratio
79 | CTAATCACT | 1.05
80 | CTAATCCTTC | 1.13
81 | CTAATGATT | 1.02
82 | CTAATGTCCC | 0.973
83 | CTAATTAACC | 1.04
84 | CTAATTGTTC | 0.982
85 | CTACAAATAA | 1.03
86 | CTACAAGGA | 1.08
87 | CTACACTGCG | 1.07
88 | CTACAGCGCG | 0.964
89 | CTACATCAAA | 1.03
90 | CTACCATTGG | 0.968
91 | CTACCCGGAG | 1.17
92 | CTACCCGGGG | 1.07
93 | CTACCGATAG | 1.36
94 | CTACCTGCTG | 1
95 | CTACCTTCTG | 1.2
96 | CTACGAGGGG | 0.986
97 | CTACGATGT | 1.01
98 | CTACGGACAG | 1.29
99 | CTACGGTAC | 5.15
100 | CTACGGTCCA | 1.03
101 | CTACGTTAT | 1.44
102 | CTACGTTGAG | 1.02
103 | CTACTAGGAC | 1.06
104 | CTACTAGTGC | 1.13

Row | Sequence | switch fluorescence ratio
105 | CTACTCATGA | 0.976
106 | CTACTCATGT | 1.03
107 | CTACTGGGAC | 1.14
108 | CTACTGTTGA | 1.03
109 | CTACTTCTT | 0.969
110 | CTACTTTCT | 0.99
111 | CTAGACATTT | 1.01
112 | CTAGACCAGT | 1.02
113 | CTAGACTCAG | 1.02
114 | CTAGACTGAA | 1.01
115 | CTAGACTTCG | 1.05
116 | CTAGAGACCA | 1.02
117 | CTAGAGCTAA | 1.37
118 | CTAGAGGGC | 1.02
119 | CTAGAGGTTA | 0.977
120 | CTAGAGTAG | 1
121 | CTAGATCCGC | 1.48
122 | CTAGATTCCC | 1.05
123 | CTAGCCACTT | 0.996
124 | CTAGCGCGAA | 1.09
125 | CTAGCTCTGA | 1.01
126 | CTAGCTGTCA | 1
127 | CTAGGAACGT | 0.995
128 | CTAGGAGAGA | 0.982
129 | CTAGGATACG | 0.982
130 | CTAGGATATT | 0.987

Row | Sequence | switch fluorescence ratio
131 | CTAGGCTTTC | 1.11
132 | CTAGGGGAGC | 0.961
133 | CTAGGGGCGG | 0.984
134 | CTAGGGGGGT | 0.979
135 | CTAGGGTCAC | 0.984
136 | CTAGGTATTC | 1.02
137 | CTAGGTCCGG | 1
138 | CTAGGTTTCT | 0.99
139 | CTAGTCATTG | 0.949
140 | CTAGTCGGGT | 1.04
141 | CTAGTCTCTG | 0.993
142 | CTAGTGCAGT | 1.01
143 | CTAGTGTTA | 0.995
144 | CTAGTTACGG | 1.05
145 | CTAGTTACTA | 1.02
146 | CTATAAAACC | 1.05
147 | CTATACCGGT | 0.985
148 | CTATACGAGG | 1.03
149 | CTATACTGGT | 0.974
150 | CTATATTAAT | 0.974
151 | CTATCAGTAG | 0.986
152 | CTATCCGCTG | 3.45
153 | CTATCGGATC | 0.992
154 | CTATCGGTCT | 0.945
155 | CTATCTCTCC | 1.08
156 | CTATGAACCA | 1.05

Row | Sequence | switch fluorescence ratio
157 | CTATGATGAC | 0.998
158 | CTATGATGAT | 0.968
159 | CTATGCACCG | 1.04
160 | CTATGGCATC | 1.08
161 | CTATGTAATG | 1.05
162 | CTATGTGGCA | 1.23
163 | CTATTCCGCC | 2.18
164 | CTATTCGTAA | 1.16
165 | CTATTCGTTC | 0.986
166 | CTATTGAGTA | 1.02
167 | CTATTGGTCC | 1.06
168 | CTATTTGTCT | 0.966
169 | CTCAAGCCCG | 1.09
170 | CTCACCACCG | 1.17
171 | CTCACGTAGA | 1.13
172 | CTCACTGGGG | 1
173 | CTCAGATTGA | 0.951
174 | CTCAGCAGGA | 1.43
175 | CTCAGCGCAC | 3.08
176 | CTCAGGGGGC | 1.03
177 | CTCAGGGTAT | 1.01
178 | CTCAGTCCCC | 1.12
179 | CTCAGTGCAC | 0.976
180 | CTCATAAACG | 1.03
181 | CTCATGCCAT | 1.05
182 | CTCATGGGAA | 0.986

Row | Sequence | switch fluorescence ratio
183 | CTCATGGTCG | 1.06
184 | CTCATGTCGC | 0.96
185 | CTCATTCCGG | 1.01
186 | CTCATTTTAT | 0.997
187 | CTCATTTTTT | 1.04
188 | CTCCAACGCT | 2.07
189 | CTCCAAGCAC | 4.69
190 | CTCCAATCCC | 1.09
191 | CTCCACCTAT | 1.16
192 | CTCCAGGCAC | 2.83
193 | CTCCATACCT | 1.32
194 | CTCCATCAAG | 1.55
195 | CTCCGGATGT | 4.08
196 | CTCCGGCAGG | 2.36
197 | CTCCGTCGTA | 1.24
198 | CTCCGTCGTT | 1.38
199 | CTCCTGACAT | 1.24
200 | CTCCTGCGCC | 4.23
201 | CTCCTGGTAG | 1.21
